Measurements taken from article PMC4336329 (PLoS ONE, 2015).
Among all 310,000 compounds or so, about 14,000 (4.5%) showed an effect of 50% or more. Effects have a minus sign here. The list shows a part of the results.

Target: human ether-à-go-go-related gene (hERG) potassium channel (human, UniProt Q12809)
Assay: primary screen, population patch clamp on CHO cells stably expressing hERG
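Also: peak tail current of the secondary pulse compared with the same well before compound.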

Sequence of human ether-à-go-go-related gene (hERG) potassium channel (Q12809 whole entry, looked up): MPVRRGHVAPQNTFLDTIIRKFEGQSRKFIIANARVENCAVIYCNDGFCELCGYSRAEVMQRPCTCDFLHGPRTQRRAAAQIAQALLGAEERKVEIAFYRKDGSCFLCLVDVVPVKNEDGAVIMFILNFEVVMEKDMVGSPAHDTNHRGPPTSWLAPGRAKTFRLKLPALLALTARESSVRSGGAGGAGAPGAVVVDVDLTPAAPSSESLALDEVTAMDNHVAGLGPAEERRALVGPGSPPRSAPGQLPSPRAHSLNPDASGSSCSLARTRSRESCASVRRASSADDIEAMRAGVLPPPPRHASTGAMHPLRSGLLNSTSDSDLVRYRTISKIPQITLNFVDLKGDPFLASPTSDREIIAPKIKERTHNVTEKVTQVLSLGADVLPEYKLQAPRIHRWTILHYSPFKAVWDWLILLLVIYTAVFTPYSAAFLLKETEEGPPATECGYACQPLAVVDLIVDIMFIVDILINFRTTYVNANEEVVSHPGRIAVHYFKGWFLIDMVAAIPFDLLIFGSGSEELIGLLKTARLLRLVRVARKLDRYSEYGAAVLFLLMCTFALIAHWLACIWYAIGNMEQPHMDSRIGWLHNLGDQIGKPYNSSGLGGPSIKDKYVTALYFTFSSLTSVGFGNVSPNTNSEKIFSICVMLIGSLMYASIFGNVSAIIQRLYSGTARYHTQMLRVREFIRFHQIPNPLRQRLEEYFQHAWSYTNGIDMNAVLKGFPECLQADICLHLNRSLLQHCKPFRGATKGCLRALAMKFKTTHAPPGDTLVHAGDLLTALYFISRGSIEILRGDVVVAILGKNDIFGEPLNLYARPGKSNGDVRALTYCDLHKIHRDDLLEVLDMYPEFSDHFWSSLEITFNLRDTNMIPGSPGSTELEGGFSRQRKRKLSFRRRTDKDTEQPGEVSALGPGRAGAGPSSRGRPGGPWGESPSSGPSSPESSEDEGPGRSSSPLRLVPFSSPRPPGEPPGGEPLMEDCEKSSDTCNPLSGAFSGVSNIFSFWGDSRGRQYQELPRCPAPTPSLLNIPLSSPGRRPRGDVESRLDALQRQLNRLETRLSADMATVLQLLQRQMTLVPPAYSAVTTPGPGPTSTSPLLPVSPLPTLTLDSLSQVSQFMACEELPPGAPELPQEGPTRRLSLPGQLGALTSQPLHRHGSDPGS

Row | Compound | hERG current change (%, negative = inhibition) at 10uM [%]
1 | CN(C)S(=O)(=O)c1cccc(C(=O)OCC(=O)NC2CCCc3ccccc32)c1 (stereo not drawn) | -3.61
2 | CN1C(=O)C(C2c3ccccc3C(=O)N2Cc2ccc([N+](=O)[O-])cc2)C(=O)N(C)C1=O (stereo not drawn) | -22.1
3 | COc1ccc(NC(=O)C2CC(c3ccccc3Cl)=NO2)cc1 (stereo not drawn) | 1.54
4 | COc1ccc(-c2nnn(Cc3ccccc3F)n2)cc1 | -22.2
5 | CCn1nc(NS(=O)(=O)c2ccccc2[N+](=O)[O-])c2cc3ccc(C)cc3nc21 | 6.61
6 | O=C(NCCc1cccs1)C1CC(c2cccc(F)c2)=NO1 (stereo not drawn) | -15.3
7 | Cc1cc(NC(=O)COC(=O)CNS(=O)(=O)c2ccc(C)c(C)c2)no1 | 32.9
8 | CC[C@H](C)[C@@H](C(=O)NCCCCCCCCCCC(=O)N1CCNCC1)n1cc(CCCCN=C(N)N)nn1 | 12.7
9 | c1ccc2cc(CN3CCOCC3)ccc2c1 | 1.34
10 | COc1ccc(NC(=O)N(Cc2cccs2)Cc2cc3cc4c(cc3[nH]c2=O)OCO4)cc1 | 0.798
11 | Cn1c(O)c(C=Nc2ccccc2-c2ccccc2)c(=O)n(C)c1=O | 4.4
12 | Cc1nc2ccccc2c(=O)n1NC(=O)COc1ccccc1 | -11.8
13 | Cc1cc(C(=O)NNC(=S)NCC(C)C)no1 | 2.76
14 | Cc1cccn2c(=O)c3cc(C(=O)NCc4cccnc4)c(=N)n(C(C)C)c3nc12 | -69.4
15 | Cc1onc(-c2ccccc2Cl)c1C(=O)OCC(=O)Nc1cccc(S(=O)(=O)N(C)C)c1 | 2.08
16 | CCOC(=O)N1CCN(c2cc(N)c([N+](=O)[O-])cc2F)CC1 | 3.94
17 | COc1ccc(/C=N/NC(=O)c2ccccc2O)cc1COc1ccccn1 | -11.6
18 | COc1ccc(C2C(C(=O)Nc3ccccc3)=C(C)N=C3SCC(=O)N32)cc1 (stereo not drawn) | -12.8
19 | O=C(N/N=C/c1cccs1)c1cc(-c2ccncc2)nc2ccccc12 | -27.1
20 | O=[N+]([O-])c1ccc(CSc2ccc(S(=O)(=O)N3CCCC3)cn2)cc1 | -32.6
21 | COc1ccc(NC(=O)C(c2cc3c(cc2[N+](=O)[O-])OCO3)N(C)C)cc1 (stereo not drawn) | -5.23
22 | Cc1cc(C)nc(/N=C2\NC(=O)CC(C(=O)O)N2c2ccc(C)c(C)c2)n1 (stereo not drawn) | 12.9
23 | O=C1CC(C(=O)N(c2ccc(F)cc2)C(C(=O)NC2CCCC2)c2ccccn2)CS1 (stereo not drawn) | 4.95

Row | Compound | hERG current change (%, negative = inhibition) at 10uM [%]
24 | O=C(CSc1nncn1-c1ccccc1)Nc1ccccc1F | 19.4
25 | Cc1ccccc1OCC(=O)NCCc1nc2ccccc2[nH]1 | -9.27
26 | O=C1CC(c2ccccc2)C(C(=O)Nc2ccccc2F)N1 (stereo not drawn) | 9.5
27 | Cc1ccc(C(=O)OCC(=O)N2CCC(Cc3ccccc3)CC2)cc1N | 12.8
28 | O=C(CNc1cccc(S(=O)(=O)N2CCCC2)c1)Nc1cccc(F)c1 | -7.87
29 | O=C(CCl)N1CCN(S(=O)(=O)c2ccc3ccccc3c2)CC1 | -13.6
30 | CCN1CCN(C(=O)C(C)Nc2cc(Cl)c(OC)cc2OC)CC1 (stereo not drawn) | 17.6
31 | c1csc(-c2noc(CN3CCc4sccc4C3)n2)c1 | 41.5
32 | CN(C)c1ccc(NC(=O)CCCCCn2nnc3ccccc3c2=O)cc1 | -4.39
33 | CCn1c(-c2ccccc2)c[nH]c1=S | 15.4
34 | Cc1ccc2c(CN(C)Cc3cccc(F)c3)cc(=O)oc2c1 | -5.55
35 | CC(C)(C)CC(C)(C)NCC(=O)Nc1c2c(nc3ccccc13)CCC2.O=C(O)C(=O)O | -3.35
36 | O=C(CSc1nc2ccccc2c(=O)[nH]1)Nc1ccc(C(=O)O)cc1 | 29.2
37 | Cc1ccc(C(=O)NNC(=O)CCCN2C(=O)/C(=C/c3ccccc3Cl)SC2=S)cc1 | 11.2
38 | On1c(-c2ccco2)nc2c1CCc1nonc1-2 | 13.6
39 | CCOC(=O)C1CCC2(CC1)C(C#N)=C(N)Oc1n[nH]c(C)c12 (stereo not drawn) | -14.2
40 | CC(C)NC(=O)c1ccccc1NC(=O)/C=C/c1cccc([N+](=O)[O-])c1 | 5.05
41 | COc1ccccc1NC(=O)COC(=O)c1cc2ccccc2cc1O | -8.35
42 | CCC(=O)Nc1nnc(SCC(=O)NCc2ccc3c(c2)OCO3)s1 | -42
43 | CC(=O)c1sc(NC(=O)COc2ccc(Cl)cc2C)nc1C | 12.6
44 | O=C(Nc1ccc(F)cc1)c1cc(-c2ccncc2)nc2c(Cl)cccc12 | -27.5
45 | O=C(CCCc1nc(-c2ccc(Cl)cc2)no1)Nc1cccnc1 | -24.6
